# The whole screen tested about 390,000 compounds, of which about 150 (0.038%) were called active. The inconclusive results got no clear call from the source; some entries with a clear call stand among them for comparison. The call rests on the fitted dose curve; in most records, active means well fitted inhibition curve with a large enough effect; inconclusive means small, poorly fitted or top-dose-only effect; inactive means no such curve, though single readings can be large or run the other way. A potency beside an inconclusive call is a rough fit, not a confirmed value.
# Target: Regulator of G-protein signaling 4 (Homo sapiens) (UniProt P49798)
# UniProt P49798, sequence (P49798 whole entry, looked up): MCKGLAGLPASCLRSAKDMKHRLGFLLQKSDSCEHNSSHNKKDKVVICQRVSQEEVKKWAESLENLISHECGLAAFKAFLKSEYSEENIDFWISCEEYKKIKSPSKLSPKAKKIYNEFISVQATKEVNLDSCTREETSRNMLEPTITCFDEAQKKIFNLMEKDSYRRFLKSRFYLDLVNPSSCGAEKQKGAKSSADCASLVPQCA
# Experiment: Inhibitors of Regulator of G Protein Signaling (RGS) 4: qHTS; further: nearly all actives have a fitted effect of over 75% in size
# Conditions: Transcreener GDP fluorescence polarization, RGS4-accelerated GTP hydrolysis; series mostly up to 114 µM
# How it was run: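 MLSMR compounds (23 nl, pin-transferred) preincubated 10 min at room temperature with a 500nM (2x) first reagent, then RGS4 at 900nM (2x) plus Transcreener GDP mix added; fluorescence polarization (620/688 nm) read before and after 90 min at 30 °C.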
# Potency means the concentration at half of the fitted maximal effect; tags describe the fitted curve by direction and shape.
row,Compound,Potency
1,COc1cccc2cc(-c3nnc(SCC(=O)Nc4ccc(NC(C)=O)cc4)n3C)oc12,"inconclusive: 39.8 µM [inhibitor, partial curve, poor fit]"
2,COc1cc(C)ccc1OCCSc1nc2ccc(NC(=O)c3cccs3)cc2s1,inactive
3,COc1ccc(C(=O)N(Cc2ccccc2)Cc2ccc(OC)c(COc3ccc(NC(C)=O)cc3)c2)cc1,inactive
4,CCOC(=O)Cc1nnc(NC(=O)CC)s1,"inconclusive: 89.1 µM [inhibitor, single point]"
5,Fc1ccc(C2=NNC(=NCc3ccccc3)SC2)cc1F,"inconclusive: 17.8 µM [inhibitor, full curve, poor fit]"
6,CN(CCOc1ccc(Cl)cc1)C(=O)C1CCN(C(=O)c2ccc(F)cc2)CC1,inactive
7,CCC(C)NC(=O)CSc1nnc(-c2ccc(C)cc2)c(-c2ccc(C)cc2)n1 (configuration not stated),inactive
8,COc1ccc(-c2noc(CN(C(=O)Cc3ccc(C)cc3)C(C)C)n2)cc1,inactive
9,CC(C)(C)c1nc(SCC(=O)NCc2ccco2)c2ccccc2n1,"inconclusive: 44.7 µM [inhibitor, partial curve, poor fit]"
10,O=C(Nc1cccc(Cl)c1)c1cc(S(=O)(=O)N2CCCc3ccccc32)ccc1F,inactive
11,C/C=C\C=C/C(=O)Nc1cccc(C2=NOC3(C2)C[C@@H](C(N)=O)N(C(=O)/C=C/C=C\C)C3)c1 (some centres not stated),"inconclusive: 44.7 µM [inhibitor, partial curve, poor fit]"
12,COCCN1CSC(=S)N(Cc2ccco2)C1,"inconclusive: 39.8 µM [inhibitor, partial curve, poor fit]"
13,C=C(C)CN(CC)C(=O)CSc1nc2ncc(Cl)cc2[nH]1,"inconclusive: 70.8 µM [inhibitor, single point]"
14,CN1C(=S)SC(N(O)C(=O)Nc2cccc3ccccc23)C1(C)C (configuration not stated),"inconclusive: 50.1 µM [inhibitor, partial curve, poor fit]"
15,Cc1ccc(S(=O)(=O)Oc2ccc(/C=C3/N=C(c4ccccc4)OC3=O)cc2)cc1,inactive
16,CCOC(=O)C(Cc1cc(C(C)=O)ccc1OCC)C(=O)OCC,"inconclusive: 89.1 µM [inhibitor, single point]"
17,Cc1cccc(C)c1N1CCN(C(=O)N2CCOCC2)CC1,"inconclusive: 79.4 µM [inhibitor, single point]"
18,CSc1ccc(CN2CCc3c([nH]c4ccccc34)C2)cc1,inactive
19,CC(C)(C)c1ccc(C(=O)CC(Sc2ccc(Cl)cc2)C(=O)O)cc1 (configuration not stated),"inconclusive: 50.1 µM [inhibitor, partial curve, poor fit]"
20,Cc1ccccc1CSc1cn(CC(=O)N2CCCC2)c2ccccc12,inactive
21,COc1cccc(OC)c1C(=O)NC(=S)NCc1ccccc1,"inconclusive: 100 µM [inhibitor, partial curve, poor fit]"
22,Cc1sc2c(c1C)C(=O)NC(c1ccccc1F)N2 (configuration not stated),"inconclusive: 31.6 µM [inhibitor, full curve, poor fit]"
23,Cn1cnc([N+](=O)[O-])c1S(=O)(=O)Oc1cccc2ccccc12,"inconclusive: 17.8 µM [inhibitor, full curve, poor fit]"

row,Compound,Potency
1,CC(=O)N1c2c(cc(Br)cc2S(=O)(=O)NCC2COc3ccccc3O2)CC1C (configuration not stated),inactive
2,Cc1cc(C(=O)Nc2c(C)nn(Cc3ccccc3Cl)c2C)no1,inactive
3,CC1CCN(CCCn2c(=S)[nH]c3ccc(N4CCOCC4)cc3c2=O)CC1,inactive
4,c1ccc2c(c1)ncn2-c1ncnc2sc3c(c12)CCCC3,inactive
5,O=C(Cc1ccccc1)NCc1n[nH]c(=S)n1-c1ccc(Br)cc1,"inconclusive: 79.4 µM [inhibitor, partial curve, poor fit]"
6,Cc1cccc(N2CCN(c3ncnc4c3c(-c3ccccc3)cn4-c3ccccc3)CC2C)c1 (configuration not stated),inactive
7,CN(C)[C@@H]1CCC[C@H]1OC(=O)C(c1ccccc1)c1ccccc1,"inconclusive: 89.1 µM [inhibitor, partial curve, poor fit]"
8,CNc1ccc(/C=C/C(=O)c2ccc(C)cc2)cc1[N+](=O)[O-],"inconclusive: 20 µM [inhibitor, full curve, poor fit]"
9,Cc1ccc(S(=O)(=O)NNc2ccccc2)cc1,"inconclusive: 31.6 µM [inhibitor, full curve, poor fit]"
10,COc1ccc(NC(=S)NC(NC(=O)CCl)C(Cl)(Cl)Cl)c([N+](=O)[O-])c1 (configuration not stated),"inconclusive: 44.7 µM [inhibitor, partial curve, poor fit]"
11,N#Cc1c(N(CCO)CCO)nc(N)c2c(N)nc3c(c12)CC(=O)N3Cc1cccs1,"inconclusive: 28.2 µM [inhibitor, full curve, poor fit]"
12,Cc1ccccc1NC(=O)NC1(C(=O)N2CCCC2)CCCCC1,"inconclusive: 100 µM [inhibitor, single point]"
13,COc1cc(C(=O)O/N=C2\C=CC(=O)C(C)=C2)cc(OC)c1OC,"inconclusive: 79.4 µM [inhibitor, partial curve, poor fit]"
14,O=C(CCN1C(=O)c2ccccc2C1=O)Nc1ccc(S(=O)(=O)N2CCOCC2)cc1,"inconclusive: 89.1 µM [inhibitor, partial curve, poor fit]"
15,CN[C@H]1CC[C@@H](c2ccc(Cl)c(Cl)c2)c2ccccc21,"inconclusive: 29.9 µM [inhibitor, single point]"
16,C[C@H](CO)N1C[C@H](C)[C@@H](CN(C)C(=O)Nc2ccc(C(F)(F)F)cc2)Oc2c(NC(=O)Nc3ccccc3)cccc2C1=O,inactive
17,CSc1cccc(NC(=O)C(c2ccccc2)N2Cc3ccccc3C2=O)c1 (configuration not stated),inactive
18,O=C(CCN1CCOCC1)c1ccc2c(c1)OCCO2,"inconclusive: 112 µM [inhibitor, partial curve, poor fit]"
19,CCOC(=O)C(C)Sc1nc2c(c(=O)[nH]c(=O)n2C)n1C/C=C(/C)Cl (configuration not stated),"inconclusive: 35.5 µM [inhibitor, partial curve, poor fit]"
20,O=C(C[n+]1ccc(C(=O)NCCCO)cc1)c1cccc(Br)c1,"inconclusive: 79.4 µM [inhibitor, partial curve, poor fit]"
21,O=C(COC(=O)CCc1nc2ccccc2c(=O)[nH]1)Nc1ccc(N2CCOCC2)cc1,"inconclusive: 79.4 µM [inhibitor, single point]"
22,NC(=O)c1ccc(-n2nnnc2SCC(=O)c2ccc(O)c(O)c2)cc1,inactive
23,CSC1=NSC2=NC(=O)/C(=C/c3coc4ccc(O)cc4c3=O)C(=N)N12,"inconclusive: 44.7 µM [inhibitor, partial curve, poor fit]"

row,Compound,Potency
1,O=C(Oc1cccc2c(O)cccc12)c1ccccc1,"inconclusive: 79.4 µM [inhibitor, partial curve, poor fit]"
2,COc1ccc(S(=O)(=O)Nc2ccc(Nc3ccccc3)cc2)cc1,inactive
3,CCCCOC(=O)C1CN(c2ccccc2)N=C1C(C)=O (configuration not stated),"inconclusive: 35.5 µM [inhibitor, partial curve, poor fit]"
4,O=C1CCCN1CCCNc1ncnc2c1[nH]c1ccc(Cl)cc12,"inconclusive: 79.4 µM [inhibitor, partial curve, poor fit]"
5,O=[N+]([O-])c1ccc(Cl)c(C2Nc3cccc4cccc(c34)N2)c1,"inconclusive: 79.4 µM [inhibitor, partial curve, poor fit]"
6,CCCCOc1ccc(CSc2n[nH]c(C)n2)cc1,inactive
7,COc1ccc(CCC(=O)NCc2ccccc2OC)cc1,"inconclusive: 112 µM [inhibitor, partial curve, poor fit]"
8,O=C(Nc1cc(S(=O)(=O)N2CCOCC2)ccc1N1CCCCC1)c1ccccc1Br,"inconclusive: 50.1 µM [inhibitor, partial curve, poor fit]"
9,S=C(NCCCN1CCOCC1)Nc1ccc(-c2nc3ccccc3[nH]2)cc1,"inconclusive: 28.2 µM [inhibitor, full curve, poor fit]"
10,O=C1c2ccccc2C(=O)N1/N=C/c1ccc(O)c(O)c1O,"inconclusive: 28.2 µM [inhibitor, full curve, poor fit]"
11,CNCC(O)COc1ccccc1 (configuration not stated),inactive
12,CCCc1cc(=O)[nH]c(SCc2nc3ccccc3s2)n1,inactive
13,Cc1ccc(Nc2nc(-c3ccccc3)c(CC(=O)O)s2)cc1,"inconclusive: 50.1 µM [inhibitor, partial curve, poor fit]"
14,CCCC1C2CN(C(C)=O)CC=C2C(C#N)=C(N)C1(C#N)C#N (configuration not stated),inactive
15,Cc1ccc(N2C(=O)CC(Sc3ncccn3)C2=O)cc1C (configuration not stated),"inconclusive: 100 µM [inhibitor, single point]"
16,COc1cc(OC)cc(-c2cc3nc(C)c(CCC(=O)NC(C)CCc4ccco4)c(C)n3n2)c1 (configuration not stated),"inconclusive: 79.4 µM [inhibitor, partial curve, poor fit]"
17,O=C1C(=Cc2ccco2)CCC1=Cc1ccco1,"inconclusive: 31.6 µM [inhibitor, full curve, poor fit]"
18,N=C(N)SCc1nc2ccccc2c(=O)n1-c1ccccc1,"inconclusive: 31.6 µM [inhibitor, full curve, poor fit]"
19,O=S(=O)(Nc1ccc(-c2nc3cccnc3s2)cc1)c1cccs1,inactive
20,O=C(/C=C/c1cn(CC(O)CN2CCCCCC2)c2ccccc12)c1ccc(Br)cc1 (configuration not stated),"inconclusive: 79.4 µM [inhibitor, single point]"
21,O=C(O)CCC(=O)NCCn1c(-c2ccccc2)csc1=Nc1ccccc1,"inconclusive: 56.2 µM [inhibitor, partial curve, poor fit]"
